Results: the antibiotic and cytotoxicity screens of Wong et al. (2023)
This is one part of the list.

Key:
HSkMC = human skeletal muscle cells; assay: cytotoxicity call (relative viability < 0.9); conditions: 10 µM
S. aureus RN4220 = assay: growth inhibition call (relative growth <= 0.2); conditions: 50 µM
HepG2 = assay: cytotoxicity call (relative viability < 0.9); conditions: 10 µM

Question: With `[N-]=[N+]=Nc1ccccc1C[C@]1(C(N)=O)N=C(c2ccc(OCCCO)cc2)O[C@H]1c1ccccc1N=[N+]=[N-]` as the compound, how does the cytotoxicity call (HSkMC) read?
Answer: The cytotoxicity call was “inactive”.

Question: And the growth inhibition call (S. aureus RN4220)?
Answer: Its growth inhibition call is “inactive”.

Question: For `COC(=O)[C@@]1(Cc2ccccc2CN=[N+]=[N-])N=C(c2ccc(OCCCO)cc2)O[C@H]1c1ccccc1CN=[N+]=[N-]`, which cytotoxicity call (HSkMC) is on record?
Answer: Its cytotoxicity call is “inactive”.

Question: And the growth inhibition call (S. aureus RN4220)?
Answer: Its growth inhibition call is “inactive”.

Question: Which results are given for `CCC1(c2ccccc2)C(=O)NC(=O)NC1=O`?
Answer: cytotoxicity call (HSkMC): inactive; cytotoxicity call (HepG2): inactive; growth inhibition call (S. aureus RN4220): inactive

Question: Which cytotoxicity call (HSkMC) does the source give for `CC(COc1ccc(Oc2ccccc2)cc1)Oc1ccccn1` (stereo not drawn) here?
Answer: The cytotoxicity call was “inactive”.

Question: And the growth inhibition call (S. aureus RN4220)?
Answer: The growth inhibition call was “inactive”.

Question: How did the cytotoxicity call (HSkMC) turn out when `CCNC(=O)[C@H]1O[C@H](n2cnc3c(N)ncnc32)[C@@H](O)[C@@H]1O` was run?
Answer: The cytotoxicity call was “inactive”.

Question: What about the growth inhibition call (S. aureus RN4220) of the same compound?
Answer: Its growth inhibition call is “inactive”.

Question: What does the source list for `COC(=O)[C@H]1[C@H]2CO[C@@H]1CN2`?
Answer: cytotoxicity call (HSkMC): inactive; cytotoxicity call (HepG2): inactive; growth inhibition call (S. aureus RN4220): inactive

Question: `COc1cc2ccc(=O)oc2c2ccoc12` was tested. Which cytotoxicity call (HSkMC) did it give?
Answer: Its cytotoxicity call is “inactive”.

Question: And the cytotoxicity call (HepG2)?
Answer: Its cytotoxicity call is “inactive”.

Question: What about the growth inhibition call (S. aureus RN4220) of the same compound?
Answer: Its growth inhibition call is “inactive”.

Question: How did the cytotoxicity call (HSkMC) turn out when `C1CNC[C@@H](N2CCCC2)C1` was run?
Answer: Its cytotoxicity call is “inactive”.

Question: What about the growth inhibition call (S. aureus RN4220) of the same compound?
Answer: Its growth inhibition call is “inactive”.

Question: For `CN1C[C@@H](NC(=O)C2CC2)[C@H]2OCCC[C@H]21`, which cytotoxicity call (HSkMC) is on record?
Answer: The cytotoxicity call was “inactive”.

Question: What about the cytotoxicity call (HepG2) of the same compound?
Answer: The cytotoxicity call was “inactive”.

Question: What about the growth inhibition call (S. aureus RN4220) of the same compound?
Answer: The growth inhibition call was “inactive”.

Question: What does the source list for `NC(=N[N+](=O)[O-])NCCC[C@H](N)C(=O)O`?
Answer: cytotoxicity call (HSkMC): inactive; cytotoxicity call (HepG2): inactive; growth inhibition call (S. aureus RN4220): inactive

Question: How did the cytotoxicity call (HSkMC) turn out when `CC(C)(C)NCC(O)c1cc(Cl)c(N)c(Cl)c1.Cl` (stereo not drawn) was run?
Answer: The cytotoxicity call was “inactive”.

Question: What about the growth inhibition call (S. aureus RN4220) of the same compound?
Answer: The growth inhibition call was “inactive”.

Question: With `CC(C)(C)C(=O)C(Oc1ccc(Cl)cc1)n1cncn1` (stereo not drawn) as the compound, how does the cytotoxicity call (HSkMC) read?
Answer: Its cytotoxicity call is “inactive”.

Question: What about the cytotoxicity call (HepG2) of the same compound?
Answer: Its cytotoxicity call is “inactive”.

Question: What about the growth inhibition call (S. aureus RN4220) of the same compound?
Answer: The growth inhibition call was “inactive”.

Question: For `CC12CCC(=O)C=C1CCC1C2CCC2(C)C(O)CCC12` (stereo not drawn), which cytotoxicity call (HSkMC) is on record?
Answer: The cytotoxicity call was “inactive”.

Question: And the growth inhibition call (S. aureus RN4220)?
Answer: The growth inhibition call was “inactive”.

Question: Which results are given for `O=C1NC(=O)C(C2(O)C(=O)c3ccccc3C2=O)C(=O)N1`?
Answer: cytotoxicity call (HSkMC): inactive; cytotoxicity call (HepG2): inactive; growth inhibition call (S. aureus RN4220): inactive

Question: Which results are given for `c1ccc(CN2CCNCC2)nc1`?
Answer: cytotoxicity call (HSkMC): inactive; cytotoxicity call (HepG2): inactive; growth inhibition call (S. aureus RN4220): inactive

Question: How did the cytotoxicity call (HSkMC) turn out when `CN[C@H]1C[C@@H](N)[C@H](O)[C@@H](O[C@@H]2O[C@H](CO)[C@H](O)[C@@H]3O[C@@]4(O[C@H]23)O[C@H]([C@@H](N)CO)[C@H](O)[C@H](O)[C@H]4O)[C@@H]1O` was run?
Answer: The cytotoxicity call was “active”.

Question: What about the cytotoxicity call (HepG2) of the same compound?
Answer: The cytotoxicity call was “inactive”.

Question: What about the growth inhibition call (S. aureus RN4220) of the same compound?
Answer: Its growth inhibition call is “inactive”.

Question: What does the source list for `NC(Cc1ccc(N(CCCl)CCCl)cc1)C(=O)O` (stereo not drawn)?
Answer: cytotoxicity call (HSkMC): inactive; cytotoxicity call (HepG2): inactive; growth inhibition call (S. aureus RN4220): inactive

Question: Which cytotoxicity call (HSkMC) does the source give for `O=c1n(Cl)c(=O)n(Cl)c(=O)n1Cl` here?
Answer: The cytotoxicity call was “inactive”.

Question: And the cytotoxicity call (HepG2)?
Answer: The cytotoxicity call was “inactive”.

Question: What about the growth inhibition call (S. aureus RN4220) of the same compound?
Answer: Its growth inhibition call is “inactive”.

Question: What does the source list for `Nc1ccncc1`?
Answer: cytotoxicity call (HSkMC): inactive; cytotoxicity call (HepG2): inactive; growth inhibition call (S. aureus RN4220): inactive

Question: Which cytotoxicity call (HSkMC) does the source give for `CC(=O)c1c(O)c(C)c(O)c(Cc2c(O)c3c(c(C(=O)/C=C/c4ccccc4)c2O)OC(C)(C)C=C3)c1O` here?
Answer: Its cytotoxicity call is “inactive”.

Question: What about the cytotoxicity call (HepG2) of the same compound?
Answer: Its cytotoxicity call is “inactive”.

Question: What about the growth inhibition call (S. aureus RN4220) of the same compound?
Answer: The growth inhibition call was “inactive”.
